Measured values reported in the supplement of paper PMC4967469.
A lower IC50 marks a more sensitive line; a fit beyond the top or the lowest dose is shown as a bound at that dose. AUC sums up the same curve from the lowest dose to the 256-fold higher top dose; the more sensitive the line, the further below 1. For some assays here: Any top dose called inferred comes from the curve model; the source does not state it.

Key:
Test in all cases: Viability of human cancer cell lines after 72 h of drug (GDSC screen)
Midostaurin = compound: CO[C@@H]1[C@H](N(C)C(=O)c2ccccc2)C[C@H]2O[C@]1(C)n1c3ccccc3c3c4c(c5c6ccccc6n2c5c31)C(=O)NC4 [Midostaurin]; conditions: top dose 0.512 µM; top dose inferred
Protocol: (§1)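 Human cancer cell lines in 384-well plates, medium with 10% serum, drug for 72 h over a 256-fold dose range (nine 2-fold or five 4-fold steps up to the top dose). Adherent lines were fixed and stained with the nucleic acid dye Syto60, suspension lines read with resazurin; signal relative to control wells, capped at 0 and 100%. One two-parameter sigmoid per drug and line, fitted in a mixed model over all curves with the slope shared within a line.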

Mitomycin C = compound: CO[C@@]12[C@H](COC(N)=O)C3=C(C(=O)C(C)=C(N)C3=O)N1C[C@@H]1N[C@@H]12 [Mitomycin C]; conditions: top dose 16 µM
Protocol: as §1

Bosutinib = compound: COc1cc(Nc2c(C#N)cnc3cc(OCCCN4CCN(C)CC4)c(OC)cc23)c(Cl)cc1Cl [Bosutinib]; conditions: top dose 2 µM
Protocol: as §1

NVP-BHG712 = compound: Cc1ccc(C(=O)Nc2cccc(C(F)(F)F)c2)cc1Nc1nc(-c2cccnc2)nc2c1cnn2C [NVP-BHG712]; conditions: top dose 10.24 µM; top dose inferred
Protocol: as §1

IOX2 = compound: O=C(O)CNC(=O)c1c(O)c2ccccc2n(Cc2ccccc2)c1=O [IOX2]; conditions: top dose 0.1 µM; top dose inferred
Protocol: as §1

Row | Cell Line | AUC (Midostaurin) | IC50 (Midostaurin) [nM] | AUC (Mitomycin C) | IC50 (Mitomycin C) [nM] | AUC (Bosutinib) | IC50 (Bosutinib) [nM] | AUC (NVP-BHG712) | IC50 (NVP-BHG712) [nM] | AUC (IOX2) | IC50 (IOX2) [nM]
1 | LS-180 (large intestine, adherent) | 0.882 | > 512 | 0.144 | 62.7 | 0.977 | > 2000 | 0.952 | > 10200 | 0.983 | > 100
2 | JEG-3 (urogenital system, adherent) | 0.975 | > 512 | 0.585 | 1670 | 0.965 | > 2000 | 0.991 | > 10200 | 0.99 | > 100
3 | HCC1143 (breast, adherent) | 0.975 | > 512 | 0.53 | 1250 | 0.956 | > 2000 | 0.945 | > 10200 | 0.974 | > 100
4 | NCI-H1563 (lung adenocarcinoma, adherent) | 0.823 | 378 | 0.581 | 1740 | 0.964 | > 2000 | 0.906 | > 10200 | 0.983 | > 100
5 | CAL-51 (breast, adherent) | 0.689 | 99.4 | 0.071 | < 62.5 | 0.991 | > 2000 | 0.991 | > 10200 | 0.973 | > 100
6 | SKG-IIIa (cervix, adherent) | 0.952 | > 512 | 0.379 | 415 | 0.968 | > 2000 | 0.983 | > 10200 | 0.98 | > 100
7 | NCI-H727 (lung carcinoid, adherent) | 0.893 | > 512 | 0.283 | 160 | 0.957 | > 2000 | 0.852 | > 10200 | 0.971 | > 100
8 | EFO-27 (ovary, adherent) | 0.865 | > 512 | 0.527 | 1210 | 0.822 | 1570 | 0.871 | > 10200 | 0.978 | > 100
9 | 23132-87 (stomach, adherent) | 0.949 | > 512 | 0.141 | 71 | 0.957 | > 2000 | 0.975 | > 10200 | 0.984 | > 100
10 | SW48 (large intestine, adherent) | 0.736 | 150 | 0.268 | 220 | 0.884 | > 2000 | 0.952 | > 10200 | 0.982 | > 100
11 | FU97 (stomach, adherent) | 0.915 | > 512 | 0.545 | 1330 | 0.956 | > 2000 | 0.915 | > 10200 | 0.976 | > 100
12 | SU-DHL-5 (B-cell lymphoma, suspension) | 0.864 | 277 | 0.073 | 68 | 0.852 | 995 | 0.686 | 1830 | 0.994 | > 100
13 | JHH-4 (liver, adherent) | 0.731 | 145 | 0.417 | 591 | 0.938 | > 2000 | 0.736 | 3010 | 0.986 | > 100
14 | CAL-27 (head and neck, adherent) | 0.985 | > 512 | 0.104 | < 62.5 | 0.755 | 688 | 0.942 | > 10200 | 0.837 | 69
15 | H2795 (mesothelioma, adherent) | 0.828 | 309 | 0.702 | 3660 | 0.844 | 1400 | 0.877 | 10000 | 0.831 | 61.9
16 | CHSA0011 (chondrosarcoma, adherent) | 0.824 | 484 | 0.85 | > 16000 | 0.973 | > 2000 | 0.946 | > 10200 | 0.977 | > 100
17 | H2595 (mesothelioma, adherent) | 0.905 | > 512 | 0.5 | 1000 | 0.98 | > 2000 | 0.979 | > 10200 | 0.941 | > 100
18 | A2058 (melanoma, adherent) | 0.878 | 424 | 0.149 | 97 | 0.951 | > 2000 | 0.976 | > 10200 | 0.956 | > 100
19 | ESS-1 (endometrium, adherent) | 0.884 | 456 | 0.132 | 82.3 | 0.977 | > 2000 | 0.99 | > 10200 | 0.959 | > 100
20 | HARA (lung squamous cell carcinoma, adherent) | 0.925 | > 512 | 0.454 | 735 | 0.762 | 826 | 0.946 | > 10200 | 0.98 | > 100
21 | WM1552C (melanoma, adherent) | 0.853 | 403 | 0.222 | 154 | 0.988 | > 2000 | 0.988 | > 10200 | 0.961 | > 100
22 | DoTc2-4510 (cervix, adherent) | 0.836 | 315 | 0.232 | 175 | 0.909 | > 2000 | 0.934 | > 10200 | 0.965 | > 100
23 | MKN28 (stomach, adherent) | 0.915 | > 512 | 0.264 | 208 | 0.883 | > 2000 | 0.96 | > 10200 | 0.969 | > 100
